The other results are listed elsewhere or left out. Binding of human antibodies (heavy:light variable regions, tested as scFv in one mRNA-display pool) to influenza hemagglutinin, with or without the stem antibody CR9114 bound first. Score = (mean enrichment − median) / interquartile range of that screen; higher = more enriched, 0 = typical non-binder. Active = above the paper's cut-off per screen: stems 28; unblocked H1 Solomon Islands 5, H1 Michigan 3, H3 5, H5 19, H7 2.85, both B 5; blocked 9, 7, H5 10, H7 10, B Phuket 10, B Lee 11.5. Scores are scaled within each screen and are no affinities; replicates correlate at about 0.6 to 0.9, and antibodies rare in the pool are noisier.
What was measured:
Assay in all cases: mRNA display binding score; higher = more enriched on the antigen
[1] = biological target: Influenza A H1N1 A/Michigan/45/2015 hemagglutinin ectodomain
Method: (§1)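 A pool of natively paired antibodies, displayed as scFv on mRNA, was selected once on antigen-coated beads and sequenced before and after; two replicates.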

[2] = biological target: Influenza A H1N1 A/Solomon Islands/3/2006 hemagglutinin ectodomain
Method: as §1

[3] = biological target: Influenza A H3N2 A/Singapore/INFIMH-16-0019/2016 hemagglutinin ectodomain; conditions: antigen blocked with: nothing
Method: as §1

[4] = biological target: Influenza A H5N1 A/Qinghai/1A/2005 hemagglutinin ectodomain
Method: as §1

[5] = biological target: Influenza A H7N9 A/Shanghai/2/2013 hemagglutinin ectodomain
Method: as §1

[6] = biological target: Influenza B/Lee/1940 hemagglutinin ectodomain
Method: as §1

[7] = biological target: Influenza B/Phuket/3073/2013 hemagglutinin ectodomain
Method: as §1

[8] = antigen blocked with: 2 µM CR9114 IgG

| Binder | mRNA display binding score [1, 8] | mRNA display binding score ([1]; antigen blocked with: nothing) | mRNA display binding score [2, 8] | mRNA display binding score ([2]; antigen blocked with: nothing) | mRNA display binding score [3] | mRNA display binding score [4, 8] | mRNA display binding score ([4]; antigen blocked with: nothing) | mRNA display binding score [5, 8] | mRNA display binding score ([5]; antigen blocked with: nothing) | mRNA display binding score [6, 8] | mRNA display binding score ([6]; antigen blocked with: nothing) | mRNA display binding score [7, 8] | mRNA display binding score ([7]; antigen blocked with: nothing) |
| --- | --- | --- | --- | --- | --- | --- | --- | --- | --- | --- | --- | --- | --- |
| K77-2G11 (protein) chain 1: QMHLQESGPGLVKPSQTLSLTCSVSGGSINNGGYYWSWVRQHPGKGLEWVGYVYHSGNTYYNPSLKSRISMSVDTSNNRFSLKLNPVTAADTAVYFCARVGLTHYDVLTAYYSGYSDTWGQGTLVTVSS chain 2: DIQMTQSPSSVSASVGDRVTITCRASQDIATWLAWYQQKPVGPPKLLIHGASTLGSGVPSRFSGSGSGTDFTLTISGLQPGDFATYFCQQAYSLPITFGQGTRL | inactive: 1.02 | inactive: 0.397 | inactive: 1.13 | inactive: 0.358 | inactive: 0.381 | inactive: 2.48 | inactive: 4.9 | inactive: 2.03 | inactive: 0.596 | inactive: 9.18 | active: 216 | active: 81.5 | active: 96.5 |
| antibody 1B02 (protein) chain 1: VQLLESGGGLVPPGGSLRLSCAASGLSFSSYSMSWVRQAPGKGLEWVSAIGGLHGSTYYADFVEGRFTISRDNSRDTVFLQMNYLRAEDTALYYCASDLDGDDGTWFDNWGQGTLVTVSS chain 2: EIVMTQSPATLSVSPGERATLSCRASQSVSTNLTWYQQKPGQAPRLLIYGASTRASGIPASFSGGGSGTEFTLTISSLQSEDFAVYFCQQYNDWPPTFGQGTKVEIK | inactive: -0.409 | inactive: 0.475 | inactive: 0.458 | inactive: -0.454 | inactive: 0.999 | inactive: 0.435 | inactive: 0.09 | inactive: -0.353 | inactive: 0.498 | inactive: -1.04 | inactive: -0.0633 | inactive: 0.0981 | inactive: 0.0551 |
| C7-3-A05 (protein) chain 1: VQLVQSGAEVKKPGPGASVKVSCKASGDSFTNYYMHWVRQAPGQGLEWMGMINPNGGNVTYAQNFQDRVTMTIDTSTSTVYMELSSLRSEDTAVYFCVRVFEEQWLAYWGQGTLVTVSS chain 2: EIVLTQSPATLSLSPGERATLSCRASQSVRNYLAWYQQKPGQAPRLLIYDASNRATGIPARFSGSGSGTDFTLTISSLEPEDSAVYYCQQRFNGLCSFGQGTKVEIK | inactive: 0.848 | inactive: 0.485 | inactive: 1.03 | inactive: 0.7 | inactive: 0.484 | inactive: 0.457 | inactive: 0.659 | inactive: 0.795 | inactive: 0.589 | inactive: 0.0876 | inactive: 0.222 | inactive: -0.119 | inactive: 0.144 |
| K77-1B08 (protein) chain 1: EVQLVQSGAEVKKPGESLKISCKGFGFSFTNYWIGWVRQMPGKGLDWMGIIYPGDSDPRYSPSFQGQVTISADKSLSTAFLQWNSLKASDTAMYYCASNILNYRKNWYLGGAFDIWGQGTMVTVSS chain 2: QSALTQPPSASGTPGQGITISCSGRSSNIGSNTVNWYQQLPGTAPKLLIYTNDQRPSGVPDRFSGSRSGTSASLAISGLQSGDESDYYCATWDDSLNAYVFGTGTKVTVL | inactive: -0.00196 | inactive: -0.272 | inactive: 0.0552 | inactive: -0.145 | inactive: 1.01 | inactive: -0.227 | inactive: -0.53 | inactive: -0.615 | inactive: -0.169 | inactive: -0.114 | inactive: -0.316 | inactive: -0.117 | inactive: -0.377 |
| R95-1C09 (protein) chain 1: LVQLQESGPGLVKPSETLSLTCTVSGDSVTDYYWSWIRQPPGKGLEWIGYIYYSGITNYNPSLKSRVTMSVDTSKNQISLKLTSVIAADTAVYYCARDGRLFDIWGQGTMVAVSS chain 2: EIVLTQSPGTLSLSPGERATLSCRASQHVSSSYLAWYQQKPGQAPRLLIYDASSRATGIPDRFSGSGSGTDFTLTISRLEPEDFAVYYCQQYGSSHGWTFGQGTKVEVK | inactive: -0.00637 | inactive: 0.229 | inactive: -0.0191 | inactive: 0.101 | inactive: 0.177 | inactive: 0.156 | inactive: 1.97 | inactive: 0.521 | inactive: 0.363 | inactive: -0.104 | active: 6.99 | inactive: 5.11 | active: 54.1 |
| AG9-4A02 (protein) chain 1: VQLVESGGGWVKPGGSLRLSCEASGFKFSDHYMAWIRQAPGKGLEWISYISDNGKTEYYADSVRGRFTVSRDNGQYFLYLEMNNVRVEDTAVYYCAREPGQWLEGWFDPWGQGTLVTVSS chain 2: DIVMTQSPLSLRVTPGEPASISCKSSQSLLHGNGYNYLDWYLQRPGQSPQLLIYLGSNRASGVPDRFSGSGSGTDFTLKISRVEAEDVGVYYCMQALHTPPWTFGQGTKVEIK | inactive: 0.22 | inactive: 0.611 | inactive: 0.521 | inactive: 0.0531 | inactive: 0.546 | inactive: 0.327 | inactive: 0.244 | inactive: -0.167 | inactive: 0.723 | inactive: 0.154 | inactive: -0.168 | inactive: 3.29 | inactive: 1.32 |
| R95-1A03 (protein) chain 1: EVQLVESGGGLIQPGGSLRLSCAASGFTVSINYMSWVRQAPGKGLEWVSVIYTGGETYYADSVKGRFTISRDNSKNTLYLQMNSLRAEDTAVYYCARDGPPGDGSLDYWGQGTLVTVSS chain 2: SYELTQPPSVSVAPGQTARITCGGNNIGSKSVHWYQQKPGQAPVLVVYDDSDRPSGIPERFSGSNSGNTATLTISRVEAGDEADYYCQVWDSFSDVVFGGGTKLTVL | inactive: -0.471 | inactive: -0.619 | inactive: -0.547 | inactive: -0.442 | inactive: -0.217 | inactive: -0.75 | inactive: -0.577 | inactive: -0.513 | inactive: -0.57 | inactive: -0.342 | inactive: -0.365 | inactive: -0.601 | inactive: -0.453 |

From the supplement of paper PMC11383711
